# Results as given in the supplement of paper PMC3334620.
# Over roughly 33,000 sequences, “E-score (-0.5 to 0.5)” has its median near -0.036; the highest 2% begin near 0.37. The list shows a part of the results.
# Target: T1, Yer064c (UniProt P40041)
# T1 sequence: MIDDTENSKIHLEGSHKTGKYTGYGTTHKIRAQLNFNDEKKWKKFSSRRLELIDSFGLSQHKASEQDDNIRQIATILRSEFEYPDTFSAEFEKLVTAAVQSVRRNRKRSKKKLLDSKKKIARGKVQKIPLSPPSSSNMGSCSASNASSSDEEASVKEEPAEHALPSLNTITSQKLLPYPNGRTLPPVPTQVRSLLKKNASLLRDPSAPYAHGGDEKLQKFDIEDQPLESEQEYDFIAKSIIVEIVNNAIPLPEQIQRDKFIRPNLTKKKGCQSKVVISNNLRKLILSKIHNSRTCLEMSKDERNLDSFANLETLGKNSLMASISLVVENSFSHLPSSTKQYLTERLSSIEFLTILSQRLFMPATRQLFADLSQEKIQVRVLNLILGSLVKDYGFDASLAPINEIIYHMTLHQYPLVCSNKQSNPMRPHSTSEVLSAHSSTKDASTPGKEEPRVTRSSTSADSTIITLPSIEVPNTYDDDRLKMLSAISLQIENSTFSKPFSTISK
# Assay: PBM E-score (8-mer binding enrichment) (E-score (-0.5 to 0.5)); higher = stronger / more preferred TF binding; most listed sequences are background and not binding sites
# Conditions: protein concentration: 200 nM; construct: GST-full length
# Summary of the method: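 Each ungapped eight-base word and its reverse complement, pooled, received an E-score from the Universal PBM Analysis Suite. Underlying scans, normalised with masliner, recorded fluorescent anti-GST bound to GST-tagged yeast transcription factors. These were applied at about 100-200 nM to universal all-10-mer Agilent arrays double-stranded by primer extension.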
row,Sequence,PBM E-score
1,CAATTGGA,0.0342
2,AGTACTGA,0.255
3,ATGCTAGC,-0.123
4,ACTATCAG,0.113
5,CAGACCGC,-0.0824
6,AATCAGTC,0.368
7,CACATTCA,0.0403
8,AGATCTCG,-0.219
9,CCAAAAAC,0.155
10,CTCAGGAG,0.298
11,ACGGCTGC,-0.222
12,CCATCGAA,-0.122
13,CACCAGTG,-0.006
14,CAGACTAG,0.262
15,AGTTTCAC,0.114
16,CGCTGGAC,-0.0398
17,CAGTTCCC,-0.123
18,AGAGTGGG,-0.15
19,ACTTCCGC,0.13
20,ATAATCGA,0.138
21,CAGTTGGG,0.0278
22,ACCGTCGC,-0.193
23,ACGCATAC,-0.135
24,CGCAGTCA,0.422

row,Sequence,PBM E-score
1,ACATGACT,0.48
2,ACCTGTGG,-0.131
3,CTATTGCA,-0.0418
4,CAAATAGA,-0.0322
5,CTCCTAGA,-0.0479
6,AGAACCCT,-0.164
7,GTACAAGA,-0.00845
8,AGCTGTTA,0.0047
9,AAGCTGTA,0.0279
10,ATTGAGCA,0.106
11,ACCCTCGA,-0.113
12,AAAATGAC,0.196
13,ACATTAAT,0.0719
14,CTTCAATC,0.202
15,CGGAGGGC,-0.347
16,GATTGTCA,0.152
17,ATAACCCA,0.0412
18,AACCTAGC,-0.21
19,CCGTTGGA,-0.163
20,AGAGAGAG,-0.0213
21,TGCGTCAA,-0.294
22,CAATTCCC,-0.112
23,CATTGCAC,-0.00199
24,TCCGACGA,0.129

row,Sequence,PBM E-score
1,ATCCGAAC,-0.122
2,AGCTTTCC,-0.279
3,AGAGCCGA,-0.121
4,AGGTGAGA,0.0766
5,GGCTATTA,0.101
6,CTAGTACA,0.0257
7,CTCTGTGA,0.179
8,CGTACCAA,-0.137
9,ACGTGATG,-0.1
10,ACCACGAA,0.0355
11,GTGGACGA,0.0034
12,AAACAGCG,0.00149
13,ATGGCAGC,-0.22
14,CTCACTGC,0.0462
15,AGGAAAAC,-0.285
16,TTTAAAAA,0.133
17,GACTATTA,0.379
18,AGGGAATC,0.148
19,ATAACGAT,0.11
20,ATGGATAA,0.15
21,CATGTAGG,-0.0951
22,AGCCGTCG,-0.165
23,AGGGAAGA,-0.0141
24,ACTGCGCG,-0.0678

row,Sequence,PBM E-score
1,AAATACTG,-0.00209
2,CACGGAGG,-0.181
3,CAAGTATA,-0.181
4,CATACGGG,-0.0506
5,AGTAATGC,-0.077
6,AACCGAGA,-0.0746
7,ATTCGTAG,0.11
8,CTAGCGGA,-0.0703
9,GTAAACCA,-0.152
10,CACGCGGG,0.0291
11,CGAGGCTC,-0.301
12,CTCCCCAC,-0.11
13,TCGACAAA,0.0412
14,GCTAGCCC,-0.323
15,ATTTTCAG,-0.135
16,GGTAAGAA,0.0525
17,ATCCTCTA,-0.16
18,ATGGCTAG,0.181
19,CATGATGC,0.0125
20,AACGTCGG,-0.153
21,ATAGCTTA,0.0576
22,CGTGTGCC,-0.285
